Experimental data taken from ChEMBL document CHEMBL4888484, “Replenishing the malaria drug discovery pipeline: Screening and hit evaluation of the MMV Hit Generation Library 1 (HGL1) against asexual blood stage Plasmodium falciparum ,using a nano luciferase reporter read-out” (2022).
Hit rate of the full screen: of about 150,000 compounds, about 540 (0.36%) showed an effect of 50% or more. The list shows a part of the results.

tested on: Plasmodium falciparum; assay: Primary screen in NF54 nanoGlo assay, in single point, at 2uM, 72h; a lower Z score goes with more inhibition; assay type: functional, Erythrocyte; conditions: timepoint 72 hour

Row | Compound | % Inhibition [%] | Z score
1 | CCN1CCN(C(=O)CCN(Cc2ccccc2)c2nc(-c3ccccc3)nc3ccccc23)CC1 | -10 | 1.8
2 | O=C(Cn1c(Cc2ccc(Cl)cc2)nc2ccccc21)Nc1ccccc1 | 38 | -1.66
3 | Fc1ccc(CN(Cc2ncc(C3CC3)o2)C2CCOCC2)cc1 | -8 | 0.99
4 | CN(C[C@H]1COc2ccccc2O1)c1cncc(C(N)=O)n1 | -12 | 2
5 | C[C@@H](CCc1ccccc1)NC(=O)NCC(C)(C)C(N)=O | -3 | 0.55
6 | Cc1cc(N2CCC[C@H](NC(=O)Cc3cccc(F)c3)C2=O)n(C)n1 | 0 | 0.01
7 | C[C@@H](C1CCN(C(=O)Cc2ccc(CO)cc2)CC1)N1CCN(C)CC1 | -7 | 1.42
8 | CCCC1(NC(=O)[C@H]2CCCN(C3CCN(Cc4ccncc4)CC3)C2)CC1 | 1 | -0.17
9 | CCc1nc(NCc2cccnc2Oc2ccc(F)cc2F)ncc1C | -12 | 1.51
10 | COc1nc2c(c(C)nn2-c2ccccc2)c(C)c1CCC(=O)NC[C@H]1CCCO1 | 3 | -0.5
11 | CC(C)Cn1cc(CNC(=O)OCc2ccccc2)cn1 | -6 | 0.99
12 | O=C(Nc1cc(F)cc(F)c1)N1CC(c2noc(-c3ccncc3)n2)C1 | 26 | -2.98
13 | CCn1nnc2cc(C(=O)N3CCN(CC(=O)N(C)C)CC3)ccc21 | 1 | -0.18
14 | Clc1ccc(CN2CC[C@H](Oc3ccccc3)C2)nc1 | -4 | 0.69
15 | O=C(NCCOc1ccccc1F)c1ccnnc1 | -6 | 0.63
16 | COCC(=O)Nc1ccc(-c2noc([C@@H]3CCCN3Cc3ncc[nH]3)n2)cn1 | -12 | 1.58
17 | O=C1NN=C(c2ccccc2)[C@@]1(Cl)c1ccccc1 | -9 | 1.11
18 | Cc1ccc(CNC(=O)Cc2sc(-c3cccnc3)nc2-c2ccc(C)cc2)cc1 | 6 | -0.82
19 | Cc1nn([C@H]2CCS(=O)(=O)C2)c(O)c1Cc1ccc(Br)cc1 | -10 | 1.36
20 | C[C@H]1CCCN(C(=O)CNC2(c3cccc(F)c3)CC2)C1 | -11 | 2.07
21 | Cc1nnc(C(=O)NCCOc2cccc(Br)c2)s1 | -5 | 0.88

Row | Compound | % Inhibition [%] | Z score
22 | COCC[C@@H](CO)NC(=O)NCc1cc2cc(F)ccc2s1 | 34 | -0.44
23 | CN(CCCCN1CCOCC1)C(=O)c1ccc2nc(C3CCCCC3)oc2c1 | -11 | 2.09
24 | CCn1cc(CC(=O)N2CCCC[C@@H]2CC2(O)CCCCC2)nn1 | 2 | -0.42
25 | CCC(=O)NCc1ccc(-c2noc(Cc3cccc(F)c3)n2)s1 | -14 | 1.63
26 | O=C1CC2(CCN(S(=O)(=O)Cc3ccc(Cl)cc3F)CC2)CN1 | -12 | 1.99
27 | COCC1CCN(S(=O)(=O)NCCc2c(C)n[nH]c2C)CC1 | -8 | 1.13
28 | Cc1ccccc1C(=O)Nc1ccc(N(C)C[C@H]2COCCO2)c(C(=O)O)c1 | -16 | 1.44
29 | CC1CCN(C(=O)C(C)C2CC2)CC1CNC(=O)OC(C)(C)C (stereo not drawn) | -3 | 0.28
30 | CC(NC(=O)C1CCCc2ccccc21)c1nnc2n1CCCCC2 (stereo not drawn) | -8 | 1
31 | Cc1nc(N(C)CCN2CCCC2)nc2ccccc12 | -24 | 2.58
32 | CCOC1CC(NC(=O)N2CCOC(c3ccc(C)o3)C2)C12CCC2 (stereo not drawn) | -1 | 0.1
33 | CC(=O)N1CCc2[nH]c3ccc(C(=O)NC4CCN(Cc5ccccc5)CC4)cc3c2C1 | 1 | -0.1
34 | O=C1CCCN1c1ccc(CNc2ncnc3cc(F)ccc23)cc1 | -13 | 2.02
35 | Cc1cc(C)nc(-n2nc(C)c(C(c3ccc(Cl)cc3)c3c(C)nn(-c4nc(C)cc(C)n4)c3N)c2N)n1 | -5 | 0.96
36 | Fc1ccc(N2CCN(c3cc(CNCc4ccco4)ccn3)CC2)cc1 | 8 | -1.64
37 | COC(=O)c1ccccc1CCS(=O)(=O)Cc1ccccn1 | -1 | 0.08
38 | O=C(CCC1CCN(Cc2ccoc2)CC1)NCc1cccnc1 | -7 | 1.01
39 | Cc1n[nH]c(CN2CC[C@@](O)(CO)C2)c1Cl | -8 | 1.27
40 | Cc1cc(NC(=O)N2CCC(n3cnnc3)CC2)ccc1N1CCCC1=O | -15 | 1.36
41 | CC(C)[C@@H](C(=O)N1CCn2nc(CCC(=O)O)cc2C1)c1ccccc1 | -19 | 2.42
42 | O=C(NCCc1ccccn1)c1occc1-c1ccc(F)cc1 | 3 | -0.3

Row | Compound | % Inhibition [%] | Z score
43 | Cc1c(C)n(-c2ccccc2)c2ncn(CC(=O)N[C@H]3CCCc4ccccc43)c(=O)c12 | 3 | -0.33
44 | NC(=O)c1nc(Cn2ccnc2-c2cc(-c3ccccc3)no2)no1 | -14 | 2.31
45 | CCc1c([C@H](C)S(=O)(=O)c2ccccc2)[nH]c(=O)n1CC | 30 | -3.83
46 | C[C@H]1CCc2c(sc(NC(=O)c3cccc(S(=O)(=O)NC4CCCCC4)c3)c2C#N)C1 | -10 | 1.84
47 | CC(C)NC(=O)NC1CC(C(F)(F)F)C1 (stereo not drawn) | 3 | -0.27
48 | Cc1cccc(CNC(=O)c2ccc(-n3cnc4cccnc43)cc2)c1 | -6 | 0.94
49 | C#CC12C(=O)N(C)C3C(CCO)C1C=CCC32 (stereo not drawn) | -8 | 1.49
50 | COCCN1C[C@@H](C(=O)N2CCN(c3nccs3)CC2)CC1=O | -2 | 0.25
51 | CCCn1cnnc1CN(C)CCCc1ccco1 | -12 | 1.75
52 | O=S1(=O)CCCN1Cc1cccc(-c2cnc3cncn3c2)c1 | -9 | 1.21
53 | CCCNC(=O)[C@@H]1COC2(CCN(C(=O)c3ccc(OC)cc3)CC2)N1C(=O)c1ccccc1 | -11 | 1.65
54 | CC(C)(C)OC(=O)N1CCC[C@@H]1CNC1CC1 | -7 | 0.86
55 | O=C(NCc1ccc2c(c1)OCO2)c1nc[nH]c1C(=O)NCc1ccccn1 | 6 | -0.77
56 | Cc1nc(CN2C(=O)[C@@H]3CCCCN3C2=O)cs1 | -4 | 0.48
57 | COCCC1(NC(=O)c2ccc(OC)cc2)CCN(CC2CC2)CC1 | -7 | 0.82
58 | Cc1cccc(CCNCc2cnc3cccc(C)n23)n1 | -6 | 1.09
59 | CCc1ocnc1C(=O)NC1CCCCCC1C(=O)OC (stereo not drawn) | -7 | 0.61
60 | CCCCCOCC(=O)N1CCN(c2nc(C)n[nH]2)CC1 | 6 | -0.8
61 | O=C(NC1CC(C(F)(F)F)CC(C(F)(F)F)C1)c1cccn2c(=O)[nH]nc12 (stereo not drawn) | -8 | 1.34
62 | c1ccc(-c2cc([C@@H]3NCCc4[nH]cnc43)on2)cc1 | -4 | 0.56
63 | COc1ccc(C(=O)N(Cc2c(-c3cccc(C)c3)noc2N2CCOCC2)C(C)C)cc1 | 3 | -0.29

Row | Compound | % Inhibition [%] | Z score
64 | CCOc1ccc(NC(=O)CCn2c(=O)cc(C(F)(F)F)c3cn(C)nc32)cc1 | 31 | -3.55
65 | O=C(Nc1ccc(C2(c3ccc(NC(=O)c4ccc(F)cc4)cc3)c3ccccc3C(=O)c3ccccc32)cc1)c1ccc(F)cc1 | 77 | -2.85
66 | O=C(O)[C@@H]1CCCN1C(=O)CCCc1ccc(F)c(F)c1 | 0 | -0.02
67 | CN(CC(=O)Nc1nc(-c2ccc(F)c(Cl)c2)cs1)C(=O)OC(C)(C)C | -17 | 1.61
68 | COc1ccccc1C1CN(C(=O)C(C)C)CC1C(=O)NCc1ccc(F)cc1 (stereo not drawn) | -9 | 1.28
69 | Cc1c(NC(=O)c2ccc([C@H](C)N3CCCCC3)o2)cccc1-c1nncn1C | 11 | -1.58
70 | Cc1ccc(CN(C)Cc2ccc(C)s2)s1 | 30 | -3.35
71 | CC(NC(=O)N1CC2CCC1C2)c1ccc(-c2cccnc2)cc1 (stereo not drawn) | -15 | 2.1
72 | Cc1nc(CN2C[C@@H](C)N(Cc3csc(C)n3)[C@@H](C)C2)cs1 | -8 | 0.91
73 | CC(C)C(=O)Nc1cc(C2CC2)nn1[C@H]1CCS(=O)(=O)C1 | -10 | 1.41
74 | O=C(c1cnc[nH]1)N1CCN(Cc2ccoc2)C[C@H](O)C1 | -8 | 1.05
75 | CN(C)CCN(CC(=O)O)Cc1ccc2ccn(C)c2c1 | -18 | 1.61
76 | COCCOCC(=O)Nc1cc2sc(C)nc2cc1Cl | 2 | -0.21
77 | Cc1ccc(Cn2c(C(=O)NC3CC4CCC3C4)cc3ccsc32)cc1 (stereo not drawn) | 7 | -0.78
78 | CS(=O)(=O)N1C[C@H]2CC[C@@H](C1)N(C(=O)COc1ccc3c(c1)OCO3)C2 | -3 | 0.37
79 | COC[C@H]1[C@H](Nc2ncc(Cl)cn2)[C@H]2CCO[C@H]21 | -13 | 2.11
80 | COc1cccc(C2=NN(C(=O)CN(CCN3CCOCC3)C(=O)C(C)C)[C@H](c3ccccc3)C2)c1 | -5 | 0.41
81 | CCOC(=O)N1CCC(NC(=O)c2nnn(-c3nc(-c4ccccc4)cs3)c2C)CC1 | -29 | 5.59
82 | CC(C)(C)OC(=O)N1CCN(c2nnc(NC(=O)CC3CCCC3)[nH]2)CC1 | 0 | 0.02
83 | CC1(C)CCc2c(nc3ccccc3c2O)O1 | 0 | 0.05
84 | CC[C@H]1C(=O)NCCCN1C(=O)Cn1cc(C2CC2)cn1 | 5 | -0.99
